Results on 45 compounds are retold here after publication PMC4336329 (PLoS ONE, 2015).

Molecules are shown by their SMILES. The whole screen tested about 310,000 compounds, of which about 14,000 (4.5%) showed an effect of 50% or more. Effects have a minus sign here. The list shows a part of the results.
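Note: peak tail current of the secondary pulse compared with the same well before compound.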

Chain of human ether-à-go-go-related gene (hERG) potassium channel (Q12809 whole entry, looked up): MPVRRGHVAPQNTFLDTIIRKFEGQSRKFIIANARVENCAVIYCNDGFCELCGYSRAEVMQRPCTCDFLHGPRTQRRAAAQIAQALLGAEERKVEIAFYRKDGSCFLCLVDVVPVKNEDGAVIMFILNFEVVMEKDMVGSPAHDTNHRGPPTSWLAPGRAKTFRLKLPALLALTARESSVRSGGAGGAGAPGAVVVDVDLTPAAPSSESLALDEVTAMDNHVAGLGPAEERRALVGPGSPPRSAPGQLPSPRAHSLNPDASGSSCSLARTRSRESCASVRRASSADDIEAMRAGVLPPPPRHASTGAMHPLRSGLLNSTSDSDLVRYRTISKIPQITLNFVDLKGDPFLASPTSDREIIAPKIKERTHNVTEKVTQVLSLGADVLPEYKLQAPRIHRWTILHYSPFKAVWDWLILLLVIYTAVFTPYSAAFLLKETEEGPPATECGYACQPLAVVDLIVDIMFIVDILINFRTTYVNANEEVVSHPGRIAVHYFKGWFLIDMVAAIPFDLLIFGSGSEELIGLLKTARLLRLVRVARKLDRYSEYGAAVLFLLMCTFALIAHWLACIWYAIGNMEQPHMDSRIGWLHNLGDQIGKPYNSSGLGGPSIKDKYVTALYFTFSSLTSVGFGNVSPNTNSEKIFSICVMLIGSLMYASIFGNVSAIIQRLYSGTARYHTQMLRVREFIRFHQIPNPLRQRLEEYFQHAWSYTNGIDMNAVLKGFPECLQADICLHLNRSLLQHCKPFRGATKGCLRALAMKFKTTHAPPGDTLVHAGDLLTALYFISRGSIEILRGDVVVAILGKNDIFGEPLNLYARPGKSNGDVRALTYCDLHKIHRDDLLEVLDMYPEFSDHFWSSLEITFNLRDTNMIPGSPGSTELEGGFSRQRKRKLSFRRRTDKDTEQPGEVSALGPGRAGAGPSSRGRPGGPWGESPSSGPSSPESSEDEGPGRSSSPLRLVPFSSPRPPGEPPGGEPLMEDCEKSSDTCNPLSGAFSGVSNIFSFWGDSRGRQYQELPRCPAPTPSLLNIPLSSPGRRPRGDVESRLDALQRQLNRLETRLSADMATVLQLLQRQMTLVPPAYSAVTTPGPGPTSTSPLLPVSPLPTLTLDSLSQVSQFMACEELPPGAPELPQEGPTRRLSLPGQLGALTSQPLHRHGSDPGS

The test concerns the target human ether-à-go-go-related gene (hERG) potassium channel (human, UniProt Q12809). As to the kind of experiment: primary screen, population patch clamp on CHO cells stably expressing hERG.
With `CCCCN(CC)C(=O)c1oc2ccc(S(=O)(=O)N3CCCC3)cc2c1C`, the “hERG current change (%, negative = inhibition) at 10uM” value is -33.2%. The same measure for `COc1ccc(CCNCC(=O)Nc2c(C)cc(C)cc2C)cc1OC.Cl`: -0.0819%. For the compound `COc1ccc2[nH]c(=S)[nH]c2c1`, the “hERG current change (%, negative = inhibition) at 10uM” value amounted to 18%. The same measure for `COc1ccc(OC)c(CNC(=O)Cc2c(C(=O)O)[nH]c3ccccc23)c1`: 15.3%. The same measure for `Cc1onc(-c2ccccc2Cl)c1C(=O)N1CCN=C1SCc1cccnc1`: 1.58%; for `CC1CCN(C(=O)CSc2nc3c(cnn3-c3ccc(Cl)cc3)c(=O)[nH]2)CC1`: -2.48%; for `COC(=O)c1ccc(CSc2nc3sc(C(=O)O)c(C)c3c(=O)[nH]2)cc1`: 9%.

On to `COc1cccc(-c2nn(-c3ccccc3)cc2CN(C)Cc2ccno2)c1`, for which the “hERG current change (%, negative = inhibition) at 10uM” value is given as 3.65%. The same measure for `Cc1ccc(-c2nc(-c3ccncc3)no2)cc1Cl`: 15.9%; for `Cc1cc(C)nc(-n2nc(C)c(Br)c2Nc2ccc(Br)cc2)n1`: 9.02%; for `CC(C)(C)c1ccc(/C=N/NC(=S)NC2CCCCC2)cc1`: 9.8%. The same measure for `CC(C)(C)C(=O)CSc1nc2ccccc2o1`: 0.914%; for `O=C(NNc1c(Cl)cccc1Cl)c1ccno1`: 14.5%; for `COC(=O)c1cc(-c2ccc(OC)cc2)on1`: 11.4%. Under `CC(C(=O)N(C)CC(=O)Nc1ccccc1C(F)(F)F)N1C(=O)c2ccccc2C1=O` (stereo not drawn) stands -10.7%; under `O=C(O)CCC(=O)Nc1ccc(S(=O)(=O)Nc2nccs2)cc1`, 0.43%.

For the compound `Cc1ccc(CNC(=O)CN(C)S(=O)(=O)c2cccc3cccnc23)cc1`, the “hERG current change (%, negative = inhibition) at 10uM” value is given as 3.9%.

In the case of `CCC(=NCc1ccco1)c1c(O)n(-c2ccc(Cl)cc2)c(=O)[nH]c1=O`, the “hERG current change (%, negative = inhibition) at 10uM” value is on record as 8.14%.

`CCOc1cc(C(=O)N/N=C/C2CC=CCC2)cc(OCC)c1OCC` (stereo not drawn): the “hERG current change (%, negative = inhibition) at 10uM” value is given as -29.2%. Under `CCN1CCN(C(=O)c2ccc(CSc3ccc(C)cc3)cc2)CC1` stands -63.6%; under `Cc1ccc(/C=N/NC(=O)CSc2nc3ccccc3s2)o1`, -7.71%.

Take `COc1ccc(C(=O)NC2CCCCCC2)cc1S(=O)(=O)N1CCOCC1`: the “hERG current change (%, negative = inhibition) at 10uM” value came to 5.42%. In the case of `Cc1[nH]c2ccc(C(=O)OCC(=O)NC3(C#N)CCCCC3)cc2c1C`, the “hERG current change (%, negative = inhibition) at 10uM” value is given as -16.2%. The same measure for `O=C(NCCc1ccccc1)c1ccccc1NS(=O)(=O)N1CCCC1`: -13.7%; for `CSc1ccccc1NC(=O)C(C)N1C(=O)c2ccccc2S1(=O)=O` (stereo not drawn): 7.26%; for `O=C(CSc1nc2ccccc2n1Cc1ccc(Cl)cc1)N/N=C/c1ccccc1C(=O)O`: 15.3%. For the compound `O=C(NC1CC2CCCC(C1)N2C(=S)Nc1ccc(Cl)cc1)C1CC1` (stereo not drawn), the “hERG current change (%, negative = inhibition) at 10uM” value was -0.281%. The same measure for `Cc1ccc(-c2noc(CCC(=O)NCc3ccco3)n2)cc1`: 0.976%; for `COc1ccc(NC(=O)COC(=O)c2cc3c(s2)CCC3)cc1`: -26.6%; for `CC(C)OCCCN1CC(=O)N2C(c3cccc([N+](=O)[O-])c3)c3[nH]c4ccccc4c3C[C@H]2C1=O` (stereo partly drawn): -24.5%. `COc1cc2cc(C(=O)NCCc3ccccc3)[nH]c2cc1OC`: the “hERG current change (%, negative = inhibition) at 10uM” value came to 19.2%. The same measure for `Cc1cccc(NC(=S)N(CCCN2CCCC2)Cc2cccn2Cc2ccc(Cl)cc2)c1`: -71.8%; for `COc1ccc(NC(=O)CCOc2ccccc2C)cc1S(=O)(=O)N1CCCCC1`: -13.6%. The same measure for `CC(C)C(=O)N1C2CCC1CC(O)(c1ccc(F)cc1)C2` (stereo not drawn): 14.3%; for `Cc1ccc(C)n1-c1nccc(-c2ccco2)n1`: 14.3%. The same measure for `OCC[C@H]1C[C@H](O)[C@@H](O)[C@@]2(Cc3ccccc3O2)O1`: 12%. With `CN(c1ccccc1)c1nc(N2CCCC2)nc(-n2ccnc2)n1`, the “hERG current change (%, negative = inhibition) at 10uM” value is on record as -19.5%. Under `O=C1NC2(CCCCCC2)C(=O)N1Cc1ccccc1Br` stands 16.1%; under `COCCSc1ccccc1C(=O)Nc1cc([N+](=O)[O-])ccc1OC`, -28.8%; under `CC1Cc2ccccc2N1CC(=O)Nc1ccc2c(c1)OCCCO2` (stereo not drawn), -16.1%. Under `O=C(NNC(=O)c1cc(-c2ccco2)nc2ccccc12)c1ccccc1` stands -3.05%; under `CCOc1ccc(NC(=O)C2CCN(C(=O)N3CCOc4ccccc43)CC2)cc1`, -14.5%; under `Cc1ccc2c(c1)-c1c(ssc1=S)C(C)(C)N2C(=O)c1ccco1`, 14.2%. Turning to `Cc1nn(Cc2ccc(Cl)cc2)c(Cl)c1/C=N/NC(=O)c1cccnc1`, the “hERG current change (%, negative = inhibition) at 10uM” value is given as -45.2%. In the case of `COC(=O)c1ccc(C(=O)NC2CCCc3c2cnn3-c2cc(F)cc(F)c2)nc1` (stereo not drawn), the “hERG current change (%, negative = inhibition) at 10uM” value is recorded as -22.9%.
